According to PubChem BioAssay AID504832 (National Center for Advancing Translational Sciences (NCATS), 2011):
Out of some 310,000 compounds screened, about 18,000 (5.8%) were called active. This list was built around the results that the source calls inconclusive (neither active nor inactive); the mix of calls is not that of the screen. Calls come from the whole dose curve; as a rule, active = well fitted inhibition curve with a large enough effect; inconclusive = small, poorly fitted or top-dose-only effect, or another doubt; inactive = no such curve, though single readings can be large or run the other way. Potencies of inconclusive entries are left out as doubtful fits.

Assay: Primary qHTS for delayed death inhibitors of the malarial parasite plastid, 48 hour incubation
Details: P. falciparum luciferase growth in erythrocytes; series mostly up to 28.7 µM
Method in brief: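 Here the parasites carry a stable luciferase gene and grow inside erythrocytes in Albumax-based RPMI medium with compound for one erythrocytic cycle. Activity is scored as loss of luminescent signal.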
Potency is the fitted concentration of half-maximal effect; tags give direction and shape of the fitted curve.

| SMILES | Potency |
| --- | --- |
| O=C1CN(CC(=O)NC2CCCc3ccccc32)CCN1 (stereo not given) | inactive |
| COc1ccc2c(C(=O)c3ccc(Cl)cc3)n(CCCC(N)=O)[n+]([O-])c2c1 | active: 9.28 µM |
| CC(=O)N1CCN(S(=O)(=O)c2cccc(C(=O)Nc3nc4ccccc4[nH]3)c2)CC1 | inconclusive [inhibitor, partial curve, poor fit] |
| CCN1CCN(Cc2ccc(C)cc2)CC1 | inactive |
| O=C(O)c1cccc(NC(=S)NC(=O)C(c2ccccc2)c2ccccc2)c1 | inconclusive [inhibitor, single point] |
| COc1ccccc1NC(=O)Nc1nc(CC(=O)N2CCN(c3ccccc3)CC2)cs1 | active: 11.7 µM |
| CCN(CC)CCNc1nc(SC)nc2sc3c(c12)CCN(C)C3 | inconclusive [inhibitor, single point] |
| Cc1cccc(-c2nnc(SCc3cc(=O)[nH]c4ccccc34)n2C)c1 | active: 13.1 µM |
| C[C@@H]1CCC(=O)N(CC[C@H](Oc2ccccc2)c2ccccc2)CC1 | inconclusive [inhibitor, single point] |
| CC(=O)N1CCOc2ccc(S(=O)(=O)N3CCC(C(=O)Nc4ccc(C)cc4C)CC3)cc21 | inconclusive [inhibitor, single point] |
| CCc1ccccc1N(CC(=O)N1CCN(c2ccc(F)cc2)CC1)S(C)(=O)=O | inconclusive [inhibitor, single point] |
| CCn1cc(C(=O)NCCC(C)C)c(=O)c2cc(F)c(N3CCN(C)CC3)cc21 | inconclusive [inhibitor, single point] |
| Cc1cc(S(=O)(=O)NCC(C)C)ccc1OCC(=O)NC1CC1 | inactive |
| O=[N+]([O-])c1cccc(CSc2nnc(Cc3ccccc3)n2-c2ccc(F)cc2)c1 | inconclusive [inhibitor, single point] |
| CC1CCN(CC2C(=O)O[C@@H]3C[C@@]4(C)CCC[C@H](C)C4=C[C@H]23)CC(C)(C)C1 (stereo not given in full) | inconclusive [inhibitor, single point] |
| Cc1ccc(S(=O)(=O)N(CC(=O)NC2CCCC2)c2cccc(C)c2)cc1 | inconclusive [inhibitor, partial curve] |
| CC(C)CC(=O)NC(=S)N1CCN(c2ccc([N+](=O)[O-])cc2Cl)CC1 | inactive |
| COc1ccc(CN2CCCC(C(=O)Nc3cccc(-n4cnnn4)c3)C2)c(C)c1C (stereo not given) | inconclusive [inhibitor, partial curve, poor fit] |
| CC(=O)c1ccc(S(=O)(=O)N2CCN(c3ccccc3F)CC2)cc1 | inactive |
| CC[C@]12CCCN3CCc4c(n(c5ccccc45)C(=O)C1)[C@@H]32 | inconclusive [inhibitor, single point] |
| CC(C)Sc1cc(N2CCCC2)nc(-c2ccccc2)n1 | inconclusive [inhibitor, partial curve, poor fit] |
| FC(F)(F)c1cc(C(F)(F)F)c2ccc(Oc3ccccc3)nc2n1 | inconclusive [inhibitor, partial curve, poor fit] |
| COc1ccc(C(=O)NCc2ccncc2)cc1S(=O)(=O)NCc1ccc(Cl)cc1 | inconclusive [inhibitor, partial curve] |

| SMILES | Potency |
| --- | --- |
| CCNc1nc(NC(C)C)nc(NC(C)(C)C)n1 | active: 3.29 µM |
| CCC(C(=O)NCCCN1CC(C)CC(C)C1)n1nc(C)c2sc3ccccc3c2c1=O (stereo not given) | inconclusive [inhibitor, single point] |
| C=CCOc1cccc(C2C(C(=O)c3cc4ccccc4o3)=C(O)C(=O)N2c2cc(C)on2)c1 (stereo not given) | inconclusive [inhibitor, partial curve, poor fit] |
| CCCCOP(=O)(OCCCC)C(O)c1ccc(Br)cc1 (stereo not given) | inconclusive [inhibitor, single point] |
| Cc1nnc(N/N=C\c2ccc(-c3cccc(C(=O)O)c3)o2)n1N | inactive |
| CCCCC(=O)Nc1nc(-c2ccc(S(=O)(=O)N3CCOCC3)cc2)cs1 | inconclusive [inhibitor, partial curve] |
| Cc1cc(Cl)ccc1OC(C)C(=O)OCC(=O)Nc1ccc2[nH]c(=O)[nH]c2c1 (stereo not given) | inactive |
| Cc1cc(C(=O)NNC(=O)c2c(-c3c(Cl)cccc3Cl)noc2C)no1 | inconclusive [inhibitor, single point] |
| O=C(O)c1ccccc1C(=O)NC1CCCc2ccccc21 (stereo not given) | inactive |
| COc1cccc(N(CC(=O)N2CCCCCC2)S(C)(=O)=O)c1 | inactive |
| O=S(=O)(Nc1ccccc1Cl)c1ccc(NS(=O)(=O)c2cccs2)cc1 | inconclusive [inhibitor, partial curve, poor fit] |
| C=CCc1c(C)nc2ccc(C(=O)OCC)cc2c1Cl | inactive |
| CCCCCn1c(C)c2c(OCC)cccc(=O)c2c1C | inconclusive [inhibitor, single point] |
| Cc1ccc(NC(=O)c2sc3nc(N)c(C#N)cc3c2N)cc1 | inconclusive [inhibitor, single point] |
| OC(CNc1ccccc1)Cn1ccc2ccccc21 (stereo not given) | inactive |
| CC1CC(C)CN(C(=O)c2ccc(NS(=O)(=O)c3ccc4[nH]c(=O)[nH]c4c3)cc2)C1 (stereo not given) | inconclusive [inhibitor, single point] |
| CN(C(=O)CS(=O)(=O)c1cccc(Cl)c1)c1ccccc1 | inactive |
| COc1cc([N+](=O)[O-])ccc1NC(=O)NCc1ccccn1 | inactive |
| Cc1noc(C)c1C(=O)N1CCN(c2ccc(OCc3ccccc3)cc2)CC1 | inactive |
| O=C(c1ccccc1)c1ccc2nc(Nc3ccccc3)c3nncn3c2c1 | inconclusive [inhibitor, partial curve] |
| COc1ccc(-n2nc3c(N4CCC(C(=O)NCc5cccc(C)c5)CC4)nnc(C)c3c2C)cc1 | inconclusive [inhibitor, partial curve] |
| O=S(=O)(c1cccs1)N1CCN(c2ccc(Cl)cc2)CC1 | inactive |
